Assay [1] addresses T1, Human Fat4(EC1-3) (human) (UniProt Q6V0I7).
T1 sequence: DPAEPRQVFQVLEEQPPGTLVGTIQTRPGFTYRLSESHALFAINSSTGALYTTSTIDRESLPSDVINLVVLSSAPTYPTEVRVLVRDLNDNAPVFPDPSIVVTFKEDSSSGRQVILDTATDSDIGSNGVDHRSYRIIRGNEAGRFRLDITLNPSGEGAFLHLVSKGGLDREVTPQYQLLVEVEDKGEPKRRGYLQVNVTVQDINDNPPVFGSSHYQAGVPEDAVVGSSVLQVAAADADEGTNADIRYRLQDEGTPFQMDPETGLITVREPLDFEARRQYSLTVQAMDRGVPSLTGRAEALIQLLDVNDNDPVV
Briefly: SEC; gel filtration of the constructs alone or pre-mixed at a 1:1 molar ratio prior to injection on the column; both purified. In general terms: SEC sorts molecules by how far they enter the pores of the column.

Assay [2] deals with Fat4-mCitrine on HEK293 cells (human) (UniProt Q6V0I7). Briefly: staining of cells with fluorescent streptavidin tetramers, confocal microscopy; biotinylated Dchs1 construct with Streptavidin-AF647 added to HEK293 Fat4-mCitrine cells, 37 °C for 1 h; low-salt HBS + 1 mM CaCl2 + 1% BSA; only the binder purified.
In assay [3] the target is T1, Human Fat4(EC1-3) (human). Briefly: ITC; MicroCal ITC200; Fat4 construct 30 µM in the sample cell, Dchs1 construct 300 µM as titrant; 20 °C; fitted with one set of sites; two independent experiments; both purified. Background: Isothermal titration calorimetry measures the heat released or taken up as one component is titrated into another.
Assay [4] has as its target T2, Human Fat4L379R(EC1-4) (human) (UniProt Q6V0I7).
T2 sequence: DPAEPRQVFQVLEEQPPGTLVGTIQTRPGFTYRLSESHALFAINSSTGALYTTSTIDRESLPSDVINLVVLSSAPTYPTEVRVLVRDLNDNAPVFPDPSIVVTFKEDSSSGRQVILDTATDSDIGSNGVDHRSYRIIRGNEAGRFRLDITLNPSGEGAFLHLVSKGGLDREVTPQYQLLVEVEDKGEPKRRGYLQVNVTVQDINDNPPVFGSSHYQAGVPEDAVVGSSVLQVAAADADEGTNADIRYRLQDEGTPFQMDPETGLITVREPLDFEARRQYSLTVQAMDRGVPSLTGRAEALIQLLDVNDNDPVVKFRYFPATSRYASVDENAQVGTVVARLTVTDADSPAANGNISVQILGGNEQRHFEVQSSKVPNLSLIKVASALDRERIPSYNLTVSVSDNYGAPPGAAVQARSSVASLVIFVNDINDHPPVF
The assay is described as above.

Assay [5] has as its target T3, human Fat4(EC1–4) L379R (human) (UniProt Q6V0I7).
T3 sequence: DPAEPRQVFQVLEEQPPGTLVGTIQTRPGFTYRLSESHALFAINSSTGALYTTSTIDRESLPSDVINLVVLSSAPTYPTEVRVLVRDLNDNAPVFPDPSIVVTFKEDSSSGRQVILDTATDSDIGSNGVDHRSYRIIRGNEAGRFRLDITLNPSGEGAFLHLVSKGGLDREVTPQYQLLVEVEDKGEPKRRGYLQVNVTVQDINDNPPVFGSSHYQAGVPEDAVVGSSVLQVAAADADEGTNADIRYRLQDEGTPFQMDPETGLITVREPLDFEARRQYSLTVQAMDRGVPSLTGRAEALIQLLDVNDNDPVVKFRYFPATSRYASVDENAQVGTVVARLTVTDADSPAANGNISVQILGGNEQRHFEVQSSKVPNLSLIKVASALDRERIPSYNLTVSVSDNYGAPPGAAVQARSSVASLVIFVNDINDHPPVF
Briefly: condition: 30 µM Fat4 in the cell, 300 µM Dchs1 as titrant; ITC; MicroCal ITC200; Fat4 constructs at 30 µM in the sample cell, Dchs1 constructs at 300 µM as titrants; 20 °C; one set of sites; both purified.

The target in assay [6] is T1, Human Fat4(EC1-3) (human). Described as above.
The target in assay [7] is T4, Human Fat4(EC1-4) (human) (UniProt Q6V0I7).
T4 sequence: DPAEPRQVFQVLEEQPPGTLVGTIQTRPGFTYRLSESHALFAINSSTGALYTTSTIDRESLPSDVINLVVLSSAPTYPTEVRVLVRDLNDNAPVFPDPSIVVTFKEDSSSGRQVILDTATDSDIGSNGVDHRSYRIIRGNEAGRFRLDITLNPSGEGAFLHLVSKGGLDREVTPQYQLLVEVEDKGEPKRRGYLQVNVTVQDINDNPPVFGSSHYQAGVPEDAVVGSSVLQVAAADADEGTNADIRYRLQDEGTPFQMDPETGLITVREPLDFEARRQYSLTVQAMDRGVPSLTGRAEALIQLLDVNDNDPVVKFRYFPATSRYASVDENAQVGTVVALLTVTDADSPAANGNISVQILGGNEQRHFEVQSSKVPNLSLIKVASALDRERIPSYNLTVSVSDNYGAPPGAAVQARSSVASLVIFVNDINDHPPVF
Kind of assay: ITC; MicroCal ITC200; Fat4 construct 30 µM in the sample cell, Dchs1 construct 300 µM as titrant; 20 °C; fitted with one set of sites; two independent experiments; both purified.

In assay [8] the target is Dachsous1-mCherry on HEK293 cells (human) (UniProt Q96JQ0). Kind of assay: staining of cells with fluorescent streptavidin tetramers, confocal microscopy; tetramers of Fat4 with Streptavidin-AF488 added to HEK293 Dachsous1-mCherry cells induced with doxycycline (100 ng/mL, 1–2 days); only the binder purified.

These are yes or no findings as the source states them, for the method shown. Some results given as binding are weak or reduced against the parent protein; the word gives no strength.

B1: Human Dchs1(EC1-3) (domain or fragment, UniProt Q96JQ0 43-362)
chain: DPQAGSLDLQIDEEQPAGTLIGDISAGLPAGTAAPLMYFISAQEGSGVGTDLAIDEHSGVVRTARVLDREQRDRYRFTAVTPDGATVEVTVRVADINDHAPAFPQARAALQVPEHTAFGTRYPLEPARDADAGRLGTQGYALSGDGAGETFRLETRPGPDGTPVPELVVTGELDRENRSHYMLQLEAYDGGSPPRRAQALLDVTLLDINDHAPAFNQSRYHAVVSESLAPGSPVLQVFASDADAGVNGAVTYEINRRQSEGDGPFSIDAHTGLLQLERPLDFEQRRVHELVVQARDGGAHPELGSAFVTVHVRDANDNQPSM
As to B1, in assay [1], the binding entry is listed as “no binding”.

B2: human Dchs1(EC1–3) used to stain Fat4 cells (domain or fragment, UniProt Q96JQ0 43-362)
chain: DPQAGSLDLQIDEEQPAGTLIGDISAGLPAGTAAPLMYFISAQEGSGVGTDLAIDEHSGVVRTARVLDREQRDRYRFTAVTPDGATVEVTVRVADINDHAPAFPQARAALQVPEHTAFGTRYPLEPARDADAGRLGTQGYALSGDGAGETFRLETRPGPDGTPVPELVVTGELDRENRSHYMLQLEAYDGGSPPRRAQALLDVTLLDINDHAPAFNQSRYHAVVSESLAPGSPVLQVFASDADAGVNGAVTYEINRRQSEGDGPFSIDAHTGLLQLERPLDFEQRRVHELVVQARDGGAHPELGSAFVTVHVRDANDNQPSM
Turning to B2, the binding entry in assay [2] was “binds”.

B3: Human Dchs1(EC1-4) (domain or fragment, UniProt Q96JQ0 43-472)
chain: DPQAGSLDLQIDEEQPAGTLIGDISAGLPAGTAAPLMYFISAQEGSGVGTDLAIDEHSGVVRTARVLDREQRDRYRFTAVTPDGATVEVTVRVADINDHAPAFPQARAALQVPEHTAFGTRYPLEPARDADAGRLGTQGYALSGDGAGETFRLETRPGPDGTPVPELVVTGELDRENRSHYMLQLEAYDGGSPPRRAQALLDVTLLDINDHAPAFNQSRYHAVVSESLAPGSPVLQVFASDADAGVNGAVTYEINRRQSEGDGPFSIDAHTGLLQLERPLDFEQRRVHELVVQARDGGAHPELGSAFVTVHVRDANDNQPSMTVIFLSADGSPQVSEAAPPGQLVARISVSDPDDGDFAHVNVSLEGGEGHFALSTQDSVIYLVCVARRLDREERDAYNLRVTATDSGSPPLRAEAAFVLHVTDVNDNAPAF
For the molecule B3, the binding entry in assay [3] is listed as “no binding (tested: 300 µM titrant into 30 µM in the cell)”; in assay [4], “no binding (tested: 300 µM titrant into 30 µM in the cell)”; in assay [1], “no binding”.

B4: human Dchs1(EC1–4) (domain or fragment, UniProt Q96JQ0 43-472)
chain: DPQAGSLDLQIDEEQPAGTLIGDISAGLPAGTAAPLMYFISAQEGSGVGTDLAIDEHSGVVRTARVLDREQRDRYRFTAVTPDGATVEVTVRVADINDHAPAFPQARAALQVPEHTAFGTRYPLEPARDADAGRLGTQGYALSGDGAGETFRLETRPGPDGTPVPELVVTGELDRENRSHYMLQLEAYDGGSPPRRAQALLDVTLLDINDHAPAFNQSRYHAVVSESLAPGSPVLQVFASDADAGVNGAVTYEINRRQSEGDGPFSIDAHTGLLQLERPLDFEQRRVHELVVQARDGGAHPELGSAFVTVHVRDANDNQPSMTVIFLSADGSPQVSEAAPPGQLVARISVSDPDDGDFAHVNVSLEGGEGHFALSTQDSVIYLVCVARRLDREERDAYNLRVTATDSGSPPLRAEAAFVLHVTDVNDNAPAF
As to B4, the binding result in assay [5] and in assay [6] was “no binding” each time.

B5: human Dchs1(EC1–4) tetramers (C-terminally biotinylated, on Streptavidin-AF647) (domain or fragment, UniProt Q96JQ0 43-472)
chain: DPQAGSLDLQIDEEQPAGTLIGDISAGLPAGTAAPLMYFISAQEGSGVGTDLAIDEHSGVVRTARVLDREQRDRYRFTAVTPDGATVEVTVRVADINDHAPAFPQARAALQVPEHTAFGTRYPLEPARDADAGRLGTQGYALSGDGAGETFRLETRPGPDGTPVPELVVTGELDRENRSHYMLQLEAYDGGSPPRRAQALLDVTLLDINDHAPAFNQSRYHAVVSESLAPGSPVLQVFASDADAGVNGAVTYEINRRQSEGDGPFSIDAHTGLLQLERPLDFEQRRVHELVVQARDGGAHPELGSAFVTVHVRDANDNQPSMTVIFLSADGSPQVSEAAPPGQLVARISVSDPDDGDFAHVNVSLEGGEGHFALSTQDSVIYLVCVARRLDREERDAYNLRVTATDSGSPPLRAEAAFVLHVTDVNDNAPAF
modifications: biotin, C-terminal (biotin acceptor peptide)
As for B5, the binding result in assay [2] was “binds”.

B6: Human Dchs1(EC1-4) R297A (domain or fragment)
chain: DPQAGSLDLQIDEEQPAGTLIGDISAGLPAGTAAPLMYFISAQEGSGVGTDLAIDEHSGVVRTARVLDREQRDRYRFTAVTPDGATVEVTVRVADINDHAPAFPQARAALQVPEHTAFGTRYPLEPARDADAGRLGTQGYALSGDGAGETFRLETRPGPDGTPVPELVVTGELDRENRSHYMLQLEAYDGGSPPRRAQALLDVTLLDINDHAPAFNQSRYHAVVSESLAPGSPVLQVFASDADAGVNGAVTYEINRAQSEGDGPFSIDAHTGLLQLERPLDFEQRRVHELVVQARDGGAHPELGSAFVTVHVRDANDNQPSMTVIFLSADGSPQVSEAAPPGQLVARISVSDPDDGDFAHVNVSLEGGEGHFALSTQDSVIYLVCVARRLDREERDAYNLRVTATDSGSPPLRAEAAFVLHVTDVNDNAPAF
notes: human Dachsous1 (Dchs1), EC1-EC4, aa43-472, with R297A; also called Dchs1R297A(EC1-4); Dchs1R297A
In the case of B6, the binding entry in assay [7] is listed as “binds weakly”.

B7: human Fat4(EC1–3) tetramers (biotinylated, on Streptavidin-AF488) (domain or fragment, UniProt Q6V0I7 43-353)
chain: DPAEPRQVFQVLEEQPPGTLVGTIQTRPGFTYRLSESHALFAINSSTGALYTTSTIDRESLPSDVINLVVLSSAPTYPTEVRVLVRDLNDNAPVFPDPSIVVTFKEDSSSGRQVILDTATDSDIGSNGVDHRSYRIIRGNEAGRFRLDITLNPSGEGAFLHLVSKGGLDREVTPQYQLLVEVEDKGEPKRRGYLQVNVTVQDINDNPPVFGSSHYQAGVPEDAVVGSSVLQVAAADADEGTNADIRYRLQDEGTPFQMDPETGLITVREPLDFEARRQYSLTVQAMDRGVPSLTGRAEALIQLLDVNDNDPVV
modifications: biotin, C-terminal (biotin acceptor peptide)
For B7, in assay [8], the binding entry is given as “no binding”.

B8: human Fat4(EC1–4) tetramers (biotinylated, on Streptavidin-AF488) (domain or fragment, UniProt Q6V0I7 43-475)
chain: DPAEPRQVFQVLEEQPPGTLVGTIQTRPGFTYRLSESHALFAINSSTGALYTTSTIDRESLPSDVINLVVLSSAPTYPTEVRVLVRDLNDNAPVFPDPSIVVTFKEDSSSGRQVILDTATDSDIGSNGVDHRSYRIIRGNEAGRFRLDITLNPSGEGAFLHLVSKGGLDREVTPQYQLLVEVEDKGEPKRRGYLQVNVTVQDINDNPPVFGSSHYQAGVPEDAVVGSSVLQVAAADADEGTNADIRYRLQDEGTPFQMDPETGLITVREPLDFEARRQYSLTVQAMDRGVPSLTGRAEALIQLLDVNDNDPVVKFRYFPATSRYASVDENAQVGTVVALLTVTDADSPAANGNISVQILGGNEQRHFEVQSSKVPNLSLIKVASALDRERIPSYNLTVSVSDNYGAPPGAAVQARSSVASLVIFVNDINDHPPVF
modifications: biotin, C-terminal (biotin acceptor peptide)
Regarding B8, the binding entry in assay [8] was “binds”.

B9: recombinant Fat4^L379R tetramers (domain or fragment, UniProt Q6V0I7 43-475)
chain: DPAEPRQVFQVLEEQPPGTLVGTIQTRPGFTYRLSESHALFAINSSTGALYTTSTIDRESLPSDVINLVVLSSAPTYPTEVRVLVRDLNDNAPVFPDPSIVVTFKEDSSSGRQVILDTATDSDIGSNGVDHRSYRIIRGNEAGRFRLDITLNPSGEGAFLHLVSKGGLDREVTPQYQLLVEVEDKGEPKRRGYLQVNVTVQDINDNPPVFGSSHYQAGVPEDAVVGSSVLQVAAADADEGTNADIRYRLQDEGTPFQMDPETGLITVREPLDFEARRQYSLTVQAMDRGVPSLTGRAEALIQLLDVNDNDPVVKFRYFPATSRYASVDENAQVGTVVARLTVTDADSPAANGNISVQILGGNEQRHFEVQSSKVPNLSLIKVASALDRERIPSYNLTVSVSDNYGAPPGAAVQARSSVASLVIFVNDINDHPPVF
modifications: biotin, C-terminal (biotin acceptor peptide)
Consider B9, for which the binding result in assay [8] was “no binding”.

Values taken from paper PMC9935876, “Structure of the planar cell polarity cadherins Fat4 and Dachsous1” (Nature Communications, 2023).
